# The campaign covered roughly 48,000 compounds. About 120 (0.25%) were called active. About 4% were inconclusive and are not listed. Calls come from the whole dose curve; as a rule, active = well fitted activation curve with a large enough effect; inconclusive = small, poorly fitted or top-dose-only effect, or another doubt; inactive = no such curve, though single readings can be large or run the other way. Some of the results follow.
# Assay: Primary qHTS for Identification of Small Molecule Activators of Huntingtin-Antisense Promoter Activity; note: nearly all actives have a fitted effect of over 55% in size
# Conditions: HEK293 HTT-AS promoter firefly luciferase reporter, 24 h; series mostly up to 57.5 µM; activity change, positive = activation: at the top concentration
# Summary of the method: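 HEK293 Fluc reporter, 2,500 cells/well, 24 h pre-culture; cpds up to 57.5 uM final, 24 h 37 degrees C; Dual-Glo, 10 min RT; normalized vehicle = 0%, zero RLU = -100%.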
row,Structure (SMILES),"activity change, positive = activation"
1,COc1ccc(S(=O)(=O)c2c(O)c3ccc(C(=O)NCc4ccc(Cl)cc4)cc3[nH]c2=O)cc1,inactive: -11.2%
2,CCOC(=O)C1CCN(C(=O)Cn2ncc3c4ccccc4n(Cc4ccc(F)cc4)c3c2=O)CC1,inactive: -16.5%
3,Cc1csc2nc(COc3ccc(NC(=O)COc4ccccc4)cc3)cc(=O)n12,inactive: 6.01%
4,CCN(Cc1ccccc1)C(=O)Cn1c(=O)n(-c2cccc(C)c2)c(=O)c2c1c1cc(C)ccc1n2C,inactive: -13.5%
5,Cc1ccc2oc3c(c(=O)c2c1)C(c1ccc([N+](=O)[O-])cc1)N(CCCN1CCOCC1)C3=O (configuration not stated),inactive: -6.99%
6,CC(=O)N(O)CCCCCNC(=O)CCC(=O)N(O)CCCCCNC(=O)CCC(=O)N(O)CCCCCN,inactive: -11.2%
7,C=CCc1ccccc1OCc1nc2ccccc2n1CC,inactive: -27.7%
8,O=C(O)Cc1cccc(-c2cc(CCCCCCc3ccc(O[C@H]4O[C@H](CO)[C@@H](O)[C@H](O)[C@@H]4O)c(-c4cccc(CC(=O)O)c4)c3)ccc2O[C@H]2O[C@H](CO)[C@@H](O)[C@H](O)[C@@H]2O)c1,"inactive: -1.79% [at 0.74 µM, percent change from vehicle, -100% = no light]"
9,O=C(CN1C(=O)c2cccnc2Oc2ccc(Cl)cc21)NCCc1ccccc1,inactive: 9.54%
10,CC(C)(C)C(=O)Cn1c(=O)n(-c2ccccc2)c(=O)c2c3c(sc21)CCC3,inactive: -10.9%
11,Cc1cc(NC(=O)CSc2ncc(C(=O)Nc3ccc(Cl)cc3)c(=O)n2C)no1,inactive: 11.6%
12,Cc1ccc(Cl)cc1NC(=O)Cn1c(=O)n(Cc2ccccc2)c(=O)c2oc3ccccc3c21,inactive: -7.9%
13,Cc1ccc(CNC(=O)CCc2c(C)nc3nc(C)nn3c2C)cc1,inactive: -22%
14,Cc1ccc(OCC(=O)Nc2cccc(OCc3cc(=O)n4cccc(C)c4n3)c2)cc1C,inactive: -4.51%
15,Cc1ccc(CCNC(=O)CCCn2c(=O)c3ccccc3n(Cc3ccccc3C#N)c2=O)cc1,inactive: -17.5%
16,CCc1ccc(O)c(C(=O)c2cnc3cc(-c4ccc(C)cc4)nn3c2)c1,inactive: -5.49%
17,N#Cc1c(C(F)(F)F)cc(-c2cccs2)nc1SCC(=O)Nc1ccccc1F,inactive: -24.2%
18,Cc1cc(C)cc(NC(=O)CSc2oc(-c3ccccc3)nc2S(=O)(=O)c2ccccc2)c1,inactive: -2.17%
19,O=C1Cc2cc(CCN3CCN(c4nsc5ccccc45)CC3)c(Cl)cc2N1,inactive
20,CCOc1ccc(-c2cc(C(=O)NCc3ccccc3Cl)c3ccccc3n2)cc1,inactive: 20.5%
21,CCn1cc(S(=O)(=O)c2ccccc2)c(=O)c2cc(F)c(N3CCCC3)cc21,inactive: -15.2%
22,Cc1cc(C)cc(NS(=O)(=O)c2ccc3[nH]cc(C(=O)NC4CCCCC4)c(=O)c3c2)c1,inactive: -43.6%

row,Structure (SMILES),"activity change, positive = activation"
1,Cc1ccc(NC(=O)CCCn2c(=O)c3cccn3c3ccccc32)cc1C,inactive: -6.58%
2,CC(C)CC(=O)n1nc(-c2cccnc2)nc1NCc1ccc(F)cc1,inactive: -9.67%
3,COCCCNC(=O)c1ccc(-n2c(-c3ccccc3)cc3c2CCCC3)cc1,inactive: 7.46%
4,COc1cccc(-c2nnc(SCC(=O)N3CCC(C)CC3)o2)c1,inactive: 5.42%
5,Cc1cc(C)n(-c2nc3ccccc3nc2Nc2ccc(Cl)c(C(=O)OC(C)C)c2)n1,inactive: -4.4%
6,COc1ccc(OCC(=O)OCc2cc(=O)n3nc(-c4cccs4)sc3n2)cc1,inactive: 10.9%
7,OC[C@H]1O[C@@H]2O[C@H]3[C@H](O)[C@@H](O)[C@@H](O[C@H]4[C@H](O)[C@@H](O)[C@@H](O[C@H]5[C@H](O)[C@@H](O)[C@@H](O[C@H]6[C@H](O)[C@@H](O)[C@@H](O[C@H]7[C@H](O)[C@@H](O)[C@@H](O[C@H]8[C@H](O)[C@@H](O)[C@@H](O[C@H]1[C@H](O)[C@H]2O)O[C@@H]8CO)O[C@@H]7CO)O[C@@H]6CO)O[C@@H]5CO)O[C@@H]4CO)O[C@@H]3CO,inactive: -12.6%
8,COc1ccc2cc(-c3nc(Cl)c4c5c(sc4n3)CC(C)CC5)c(=O)oc2c1 (configuration not stated),inactive: -11.1%
9,O=C(Cn1c(=O)n(-c2cccc(Cl)c2)c(=O)c2sc3ccccc3c21)NC1CCCCC1,inactive: -11%
10,Cc1ccc(OCC(=O)Nc2cccc(-c3nc4ccccc4o3)c2C)cc1C,inactive: -55.1%
11,CNC(=O)C1CCC(Cn2c(=O)c3sccc3n(CC(=O)NCc3ccc(OC)cc3)c2=O)CC1 (configuration not stated),inactive: -19.9%
12,COc1ccccc1NC(=O)c1c(NC(=O)COc2ccccc2)sc2c1CCCCC2,inactive: -5.5%
13,O=C(CSCc1ccc(F)cc1)N1CCN(c2ccc(Cl)cc2)CC1,inactive: -22.1%
14,Clc1ccc(CN2CCC(CNc3ncnc4onc(-c5ccc(Cl)cc5)c34)CC2)cc1,inactive: -33.8%
15,CCc1c(C)nc(SCc2nc(-c3ccccc3)no2)[nH]c1=O,inactive: -4.69%
16,COc1cc(OC)c(OC)cc1/C=C/c1nc2cc3ccccc3cc2c(=O)n1-c1ccc(F)c(Cl)c1,inactive: -30.7%
17,O=C(c1ccc2c(c1)N(Cc1ccccc1F)C(=O)c1ccccc1S2(=O)=O)N1CCN(c2ccccc2F)CC1,inactive: -3.95%
18,CCOc1ccc(C(=O)Nc2ccc3nn(-c4ccc(OC)c(Cl)c4)nc3c2)cc1,inactive: -15%
19,CCN(CC)C(=O)c1sc2c(c1C)c(=O)n(CCc1ccccc1)c(=O)n2Cc1ccc(F)cc1Cl,inactive: -5.45%
20,CCN[C@H]1C[C@H](C)S(=O)(=O)c2sc(S(N)(=O)=O)cc21,inactive
21,COc1cccc(C(=O)N(Cc2ccc(N(C)C)cc2)Cc2ccco2)c1,inactive: -18.5%
22,CCc1ccc(CNC(=O)CN2C(=O)CSc3ccc(S(=O)(=O)N4CCOCC4)cc32)cc1,inactive: -7.06%

row,Structure (SMILES),"activity change, positive = activation"
1,O=C(CSc1nc2c([nH]c3ccccc32)c(=O)n1-c1ccc(Cl)cc1)NCc1ccccc1,inactive: -23%
2,CCc1ccc(S(=O)(=O)NCc2cccn2Cc2cccc(C)c2)cc1,inactive: -30.2%
3,CN1CCN(C(CNC(=O)C(=O)Nc2ccccc2C#N)c2ccc3c(c2)OCO3)CC1 (configuration not stated),inactive: -7.26%
4,CC1=C(C(=O)Nc2cc(Cl)ccc2C)C(c2ccccc2F)n2ncnc2N1 (configuration not stated),inactive: -8.59%
5,CC(C)CCCC(C)NCCC(C)C (configuration not stated),inactive: -8.23%
6,COc1cc(C(=O)Nc2sc3c(c2C(N)=O)CCC(C)C3)cc(OC)c1OC (configuration not stated),inactive: -2.96%
7,CCn1c(=O)c(=O)n(CC)c2cc(N3CCCCC3)c(NC(=O)c3ccc(OC)c(OC)c3)cc21,inactive: 0.456%
8,Cc1ccc2sc(N(CCCN(C)C)C(=O)c3ccco3)nc2c1C,inactive: -20.9%
9,COc1ccc(CCNC(=O)CSc2cc(=O)n(C)c3ccccc23)cc1OC,inactive: 17.9%
10,COc1ccc(CCNC(=O)Cn2c(=O)c3sccc3n(CC(=O)Nc3cccc(C(F)(F)F)c3)c2=O)cc1OC,inactive: -13.9%
11,Cc1ccc(-c2ncc(Cl)cc2-c2ccc(S(C)(=O)=O)cc2)cn1,inactive: -0.648%
12,O=C(NCc1cccc(Cl)c1)c1cnc(N2CCCCC2)c2ccccc12,inactive: -3.28%
13,Cc1cccc(N2CCN(c3ncnc4onc(C)c34)CC2)c1C,inactive: -8%
14,CCc1ccc(C2N=C(N)Nc3nc4ccccc4n32)cc1 (configuration not stated),inactive: -11.8%
15,COC(=O)c1cccc(Nc2c(-c3ccc(SC)cc3)nc3nc[nH]n23)c1,inactive: 6.25%
16,Cc1ccc(-n2ncc(C(=O)NCCc3ccsc3)c2C2CCN(C(=O)OC(C)(C)C)CC2)c(C)c1,inactive: 9.94%
17,O=C(CCCCCn1c(=O)[nH]c2ccccc2c1=O)NCCc1ccccc1,inactive: 4.08%
18,COC(=O)[C@@H]1[C@H]2C[C@@H]3c4[nH]c5ccccc5c4CCN3C[C@@H]2CC[C@@H]1O,inactive: -1.97%
19,COc1ccc(Cl)cc1NC(=O)CN(c1cccc(C)c1C)S(C)(=O)=O,inactive: -23.9%
20,Cc1cccc(S(=O)(=O)c2cn(Cc3ccc(F)cc3)c3cc(N4CCCCC4)c(F)cc3c2=O)c1,inactive: -7.43%
21,COc1ccc(CN2C(=O)N(c3cccc(C)c3)C(=O)C2CC(=O)Nc2ccc(F)cc2)cc1OC (configuration not stated),inactive: -14.7%
22,CN(Cc1ccccc1)C(=O)C(=O)Nc1ccc2nc3n(c(=O)c2c1)CCCCC3,inactive: -15.7%

row,Structure (SMILES),"activity change, positive = activation"
1,Cc1ccc(CNC(=O)c2cc3cc(C)ccc3n2C)cc1,inactive: -26.3%
2,COc1ccc(-n2c(=O)c3ccc(C(=O)NCc4ccc(C)cc4)cc3n(CC(=O)Nc3cccc(F)c3)c2=O)cc1,inactive: -30.5%
3,CCOc1ccc(C2c3[nH]c4ccccc4c3CCN2C(=O)CSc2ccccc2)cc1 (configuration not stated),inactive: -31.8%
4,Cc1ccc(NC(=O)CN2C(=O)COc3ccc(S(=O)(=O)N4CCCCC4)cc32)cc1Cl,inactive: -21.1%
5,CCOc1cc(CNCCSc2nnnn2C)ccc1OCc1ccc(Cl)cc1Cl,inactive: -33.9%
6,CCOC(=O)c1cc(NC(=O)c2ccc(C)cc2)c(=O)n2c1oc1ccccc12,inactive: -9.49%
7,COCCCNC(=O)Cn1c(=O)n(-c2ccccc2)c(=O)c2c1c1cc(OC)ccc1n2C,inactive: -11.8%
8,CCCNC(=O)C1CCC(Cn2c(=O)c3sccc3n(CC(=O)N(CC)CC)c2=O)CC1 (configuration not stated),inactive: -0.0426%
9,COc1ccc(NC(=O)Cn2nnnc2-c2ccccc2F)c(C)c1,inactive: -1.58%
10,COC(=O)c1ccc(NC(=O)CC2C(=O)N(c3cccc(F)c3)C(=O)N2CC(C)C)cc1 (configuration not stated),inactive: -34.9%
11,Cc1ccc(-n2nc(C(=O)N3CCCCC3)c(=O)n(C)c2=O)cc1,inactive: -6.42%
12,CCCN(CCC)CCNC(=O)CS(=O)Cc1nc(-c2ccc(OC)c(OC)c2)oc1C (configuration not stated),inactive: -10%
13,NCC(=O)O,"inactive: -4.06% [at 25.1 µM, percent change from vehicle, -100% = no light]"
14,CN(C)c1ccc(C(=O)Nc2sc(Nc3ccccc3)nc2C(N)=O)cc1,inactive: -41.9%
15,COc1ccc(Cn2c(CCC(=O)Nc3ccc(Br)c(C)c3)nc3cccnc32)cc1,inactive: -23.2%
16,CCCCCn1c(=O)[nH]c2cc(C(=O)N3CCN(c4ccc(OC)cc4)CC3)ccc2c1=O,inactive: -36.3%
17,O=C(Cn1nnc(-c2ccc(C(F)(F)F)cc2)n1)NCCc1ccccc1,inactive: -5.11%
18,Cc1cc(C)cc(NS(=O)(=O)c2cc3[nH]c(=O)c(=O)[nH]c3cc2C)c1,inactive: -8%
19,CCOC(=O)C1CCC(CN(Cc2ccc(OC)cc2)S(=O)(=O)c2ccc(C)cc2)CC1 (configuration not stated),inactive: -38.6%
20,CCCC(=O)Oc1c(Sc2ccc(C)cc2)c(C)nn1-c1ccccc1,inactive: -15.9%
21,COc1cc(OC)c(C(=O)NCc2nc(-c3ccccc3)no2)cc1OC,"inactive: 6.63% [at 11.5 µM, percent change from vehicle, -100% = no light]"
